The campaign covered roughly 310,000 compounds. About 14,000 (4.5%) showed an effect of 50% or more. The effect is printed as a negative number. The list shows a part of the results.
Biological target: human ether-à-go-go-related gene (hERG) potassium channel (human, UniProt Q12809)
Test: primary screen, population patch clamp on CHO cells stably expressing hERG
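Further: peak tail current of the secondary pulse compared with the same well before compound.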

Chain of human ether-à-go-go-related gene (hERG) potassium channel (Q12809 whole entry, looked up): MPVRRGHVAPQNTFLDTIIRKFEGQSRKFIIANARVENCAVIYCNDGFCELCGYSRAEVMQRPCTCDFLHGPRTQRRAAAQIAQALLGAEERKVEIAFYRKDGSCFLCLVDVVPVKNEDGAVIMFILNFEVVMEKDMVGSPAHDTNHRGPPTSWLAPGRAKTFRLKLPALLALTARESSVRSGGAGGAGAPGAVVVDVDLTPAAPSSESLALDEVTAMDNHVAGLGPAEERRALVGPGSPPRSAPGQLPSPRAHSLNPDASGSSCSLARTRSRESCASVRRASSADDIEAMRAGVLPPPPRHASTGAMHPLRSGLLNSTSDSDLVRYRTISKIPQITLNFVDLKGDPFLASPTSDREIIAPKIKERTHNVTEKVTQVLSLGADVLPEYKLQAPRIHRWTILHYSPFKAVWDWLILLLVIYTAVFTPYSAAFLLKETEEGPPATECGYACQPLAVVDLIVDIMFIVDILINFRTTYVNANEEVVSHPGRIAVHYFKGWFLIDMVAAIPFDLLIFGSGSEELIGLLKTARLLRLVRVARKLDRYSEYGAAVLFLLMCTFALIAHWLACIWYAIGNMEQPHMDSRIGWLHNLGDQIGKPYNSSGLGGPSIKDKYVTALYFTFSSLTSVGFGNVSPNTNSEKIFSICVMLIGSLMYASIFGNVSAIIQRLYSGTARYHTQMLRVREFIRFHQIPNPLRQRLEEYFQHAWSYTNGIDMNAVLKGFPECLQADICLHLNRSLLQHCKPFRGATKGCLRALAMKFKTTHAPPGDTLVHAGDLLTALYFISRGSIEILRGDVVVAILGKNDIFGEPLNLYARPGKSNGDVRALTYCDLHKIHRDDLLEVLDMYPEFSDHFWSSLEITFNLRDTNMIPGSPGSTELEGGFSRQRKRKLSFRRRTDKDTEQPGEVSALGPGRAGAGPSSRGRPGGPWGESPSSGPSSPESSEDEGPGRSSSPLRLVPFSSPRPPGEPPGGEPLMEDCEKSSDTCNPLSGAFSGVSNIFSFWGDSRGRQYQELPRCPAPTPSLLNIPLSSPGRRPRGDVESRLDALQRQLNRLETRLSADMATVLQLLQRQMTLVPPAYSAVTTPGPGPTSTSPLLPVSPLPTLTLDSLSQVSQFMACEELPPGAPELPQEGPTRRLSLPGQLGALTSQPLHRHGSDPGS

Row | Structure (SMILES) | hERG current change (%, negative = inhibition) at 10uM [%]
1 | O=C(CN1CCN(Cc2ccccc2)CC1)N/N=C/c1cccnc1 | -12.8
2 | CCCN1Cc2cccc(C(=O)Nc3cc(OC)cc(OC)c3)c2C1=O | 4.46
3 | CCOc1nc2c(c(=O)n(C)c(=O)n2C)n1Cc1ccccc1Cl | -6.62
4 | COCc1ccc(C(=O)NC2CCCc3c2cnn3-c2ccc(C)c(C)c2)o1 (stereo not drawn) | -9.75
5 | Cc1cccc(NC(=O)c2cccc(S(=O)(=O)N(C)c3ccccc3)c2)n1 | -28.7
6 | CSc1ccc(CNc2ncc(-c3cccc([N+](=O)[O-])c3)n2C)cc1.O=C(O)C(=O)O | -66.4
7 | O=C(OCC(=O)c1c[nH]c2ccccc12)c1cc(Br)ccc1O | -7.34
8 | c1ccc(-c2nc3nonc3c3nc4ccccc4n23)cc1 | -1.83
9 | Cc1cc(OCC(=O)Nc2ccc3c(c2)OCCO3)ccc1Cl | 8.15
10 | N/C(=N\OC(=O)Cc1ccc(Cl)cc1)c1ccncc1 | -17.1
11 | COc1ccc2oc(C(=O)OCC(=O)NC3CCCCC3)c(C)c2c1 | 0.557
12 | O=C(CC1(CC2=NS(=O)(=O)c3ccccc3N2)CCCC1)NCCc1ccccc1 | -26.9
13 | CCc1ccc(-n2c(C)cc(/C=N/NC(=O)OC)c2C)cc1 | -5.19
14 | CC(C)CN1CCN(Cc2nc(C(C)C)cs2)CC1CCO (stereo not drawn) | 1.27
15 | COc1ccc(Cc2nnc(SCC(=O)Nc3c(C)cccc3C)[nH]c2=O)cc1 | 13.6
16 | CCN(CC)CC(=O)Nc1sc(C)cc1C(=O)c1ccccc1 | 14.3
17 | N#C/C(=C/c1cn(-c2ccccc2)nc1-c1cccc(OCc2ccccc2)c1)C(=O)NCCCn1ccnc1 | -1.13
18 | COc1ccc2[nH]c(=O)c(C(c3nnnn3C(C)(C)C)N(Cc3ccco3)CC3CCCO3)cc2c1 (stereo not drawn) | -6.61
19 | CC1Cc2ccccc2N1C(=O)CSc1nnc(N)s1 (stereo not drawn) | 13
20 | CC1CC(=O)N(CC(=O)Nc2ccccc2F)c2ccccc2S1(=O)=O (stereo not drawn) | 5.23
21 | O=C(COc1ccccc1)Nc1ncccn1 | 2.49
22 | CCOC(=O)C1(CCOc2ccccc2)CCN(Cc2cccc(O)c2)CC1 | -63.1

Row | Structure (SMILES) | hERG current change (%, negative = inhibition) at 10uM [%]
23 | CN(c1ccc([N+](=O)[O-])cc1/C=N/NC(=O)COc1ccccc1)C1CCCCC1 | 7.86
24 | COc1cccc(NC(=O)c2ccc3c(c2)OCO3)c1 | 10.1
25 | COc1ccc(CN(C)C(=O)c2cc(S(=O)(=O)N3CCOCC3)ccc2N2CCCC2)cc1 | -35.2
26 | COc1ccc2ccccc2c1-c1csc(N)n1 | 25.3
27 | COc1ccc(/C=N/N(CCC(=O)NC(C)(C)C)C2=NS(=O)(=O)c3ccccc32)cc1 | -5.23
28 | CCOc1ccc(CC(=O)OCN2C(=O)c3ccccc3C2=O)cc1 | 9.22
29 | CCOc1cc(C)nc(N2CCCC(C(=O)NCc3ccccc3F)C2)n1 (stereo not drawn) | -15.5
30 | CCN1CCN(S(=O)(=O)c2ccc(C)c([N+](=O)[O-])c2)CC1 | -0.352
31 | COc1ccc(C(C(=O)NC2CCCC2)N(C(=O)c2snc(-c3ccc(F)cc3)c2N)c2ccc(F)cc2)cc1 (stereo not drawn) | 1.29
32 | C=CCNC(=O)c1cccc(C(F)(F)F)c1 | 20.5
33 | Br.COc1ccc(C2CC(c3cccs3)=NN2c2nc(-c3ccccc3)cs2)cc1OC (stereo not drawn) | 2.47
34 | CC(=O)c1cccc(NC(=O)C2CCCN2S(=O)(=O)c2cccc3nsnc23)c1 (stereo not drawn) | -6.42
35 | O=C(c1ccc(F)cc1)C1CCN(S(=O)(=O)c2ccccc2)CC1 | -43.1
36 | COc1cc(NC(=O)CCc2nnc3ccc(N4CCN(c5cccc(OC)c5)CC4)nn23)cc(OC)c1 | 7.07
37 | Cn1c(=O)c2c(nc(NCc3ccc4c(c3)OCO4)n2Cc2ccccc2Cl)n(C)c1=O | 7.49
38 | CCCCC(=NCCc1c(C)[nH]c2ccccc12)C1=C(O)CC(c2ccccc2)CC1=O (stereo not drawn) | 3.52
39 | O=C(CC(Cc1ccccc1)C(=O)O)Nc1ccccc1 (stereo not drawn) | 25.2
40 | COc1cccc(-n2nc(-c3ccnn3-c3cccc(Cl)c3)c(=O)n(C)c2=O)c1 | -5.04
41 | O=C(N/N=C\c1ccc(Br)o1)C1COc2ccccc2O1 (stereo not drawn) | -6.99
42 | CCc1nc(N2CCN(C(C)=O)CC2)c(C#N)c2c1COC(C)(C)C2 | -0.704
43 | O=C(NCc1cccnc1)C1CC(c2ccccc2O)=NO1 (stereo not drawn) | 1.66
44 | Cc1ccc(O)c(C(CC(=O)NC2CCCCC2)c2ccccc2)c1 (stereo not drawn) | 11.1

Row | Structure (SMILES) | hERG current change (%, negative = inhibition) at 10uM [%]
45 | O=C(Cn1cnc([N+](=O)[O-])c1)c1ccc(Cl)cc1 | -6.34
46 | O=C(c1ccccc1)c1coc2ccc(O)c(Cl)c12 | -10.9
47 | COc1ccccc1NC(=O)c1ccc2nc(C)sc2c1 | -1.41
48 | Cc1cc(N2CCCCC2)nc2ccccc12 | -9.74
49 | CCc1ccc(OCc2nnc(SCC(=O)NC3CCCCC3)o2)cc1 | 13.7
50 | Cc1cc(NCCOCCO)n2c(nc3ccccc32)c1C#N | -46
51 | CSc1ccccc1-n1nnnc1SCc1ccccc1 | -19.9
52 | COc1ccccc1-c1nnc(SCC(=O)O)n1-c1ccccc1 | 9.58
53 | Cc1cc2ncc(-c3ccc(Cl)cc3)c(N)n2n1 | -20.9
54 | CC(C)Cc1ccccc1S(N)(=O)=O | 5.14
55 | COc1ccccc1CNC(=O)c1ccc(-c2ccccc2C(F)(F)F)o1 | 1.38
56 | O=Cc1cn(-c2ccccc2)nc1-c1cc2cc(O)ccc2oc1=O | 1.74
57 | O=C(N/N=C/c1ccc2c(c1)OCO2)c1sc2cccc(Cl)c2c1Cl | 1.95
58 | Cc1ccc(C)c(NC(=O)CSc2nc3c(c(=O)n2C)SC(C)C3)c1 (stereo not drawn) | -8.57
59 | Cc1oc2cc3oc(=O)ccc3cc2c1C | 17.5
60 | Cc1cccc(N2CCN(C(=O)CCC(=O)N3Cc4ccccc4Oc4ncccc43)CC2)c1C | -21
61 | COCC(=O)Nc1ccc(C(N)=O)cc1 | -8.82
62 | COc1ccc(N(CC(=O)NCc2ccc(F)cc2)C(=O)c2snc(C(N)=O)c2N)cc1OC | 9.58
63 | O=C(COc1ccc(S(=O)(=O)N2CCOCC2)cc1)Nc1ccccc1Cl | -1.03
64 | COc1ccc2nc(C)cc(Nc3ccccc3O)c2c1.Cl | -20.3
65 | CCOc1ccc2c(c1)sc(N)[n+]2Cc1cc(C)cc2cccnc12.[Br-] | -74.9
66 | CCN(CC)CCNC(=O)Cn1c(=O)c2cccn2c2ccc(F)cc21 | 3.72

Row | Structure (SMILES) | hERG current change (%, negative = inhibition) at 10uM [%]
67 | Cc1cc(=O)oc2c(C)c(OC(C)C(=O)NC3CCN(Cc4ccccc4)CC3)ccc12 (stereo not drawn) | -48.1
68 | COC(=O)c1cc(NS(=O)(=O)c2ccc(NC(C)=O)cc2)cc(C(=O)OC)c1 | 0.11
69 | COc1ccc(CC(=O)Nc2cc(=O)n(C)c(=O)n2C)cc1OC | 23.5
70 | CCc1cccc(NC(=O)C2CCCN2C(=O)Nc2ccc(C)cc2)c1 (stereo not drawn) | 13.5
71 | COc1ccc(C(CNC(=O)c2cc3c(s2)CCCC3)N2CCOCC2)cc1 (stereo not drawn) | -23.5
72 | Cc1cccc(C)c1C(OCCN(C)C)C1CCCCC1.O=C(O)C(=O)O (stereo not drawn) | -11.7
73 | CC1(C)SC(=S)N(/N=C/c2ccccc2)C1N(O)C(=O)Nc1ccc([N+](=O)[O-])cc1 (stereo not drawn) | 8.43
74 | CC(/C=N/NC(=O)COc1ccccc1C)=N\NC(=O)COc1ccccc1C | 21.9
75 | CCOc1ccc(NC(=O)C2C3C=CC4(O3)C2C(=O)N(Cc2cccnc2)C4C(=O)NC2CCCCC2)cc1 (stereo not drawn) | 16
76 | COc1ccc(-c2csc3nc(-c4ccccc4OC)oc(=O)c23)cc1 | 19.1
77 | Cc1ccc(S(=O)(=O)N(C)C)cc1NC(=O)COC(=O)Cc1cccs1 | -74.5
78 | Cc1ccn2cc(C34CC5CC(CC(C5)C3)C4)nc2c1 | -31.1
79 | CC1(C)Oc2ccc(C(=O)N3CCCC3)cc2N(CC(=O)NCc2ccccc2)C1=O | -3.94
80 | CCOC(=O)c1cccc(NC(=S)NC(=O)c2cccnc2)c1 | 6.13
81 | COC(=O)N/N=C/c1cn(CCCOc2ccc(C)cc2)c2ccccc12 | -0.441
82 | COC(=O)C(C(=O)OC)C(C(=O)OC)C(C(=O)OC)C(=O)OC | -1.88
83 | CCCC[C@H](CN[C@@H](CNC)[C@H](C)CC)NCCC12CCC(CC1)C2 | 10.4
84 | CCS(=O)(=O)N1CCN(Cc2nc3ccccc3c(=O)[nH]2)CC1 | -12.9
85 | Cc1cc(S(=O)(=O)N2CCN(c3ccccc3O)CC2)c(C)s1 | -8.47
86 | COc1c(Br)cc(/C=N/n2c(-c3ccccc3)n[nH]c2=S)c(O)c1Br | 22.8
87 | COc1cccc(C(=O)Nc2ccc(NC(=O)C3CC=CCC3C(=O)O)cc2)c1 (stereo not drawn) | 24
